Hit rate of the full screen: of about 43,000 compounds, about 200 (0.47%) were called active. About 12% were inconclusive and are not listed. The call rests on the fitted dose curve; in most records, active means well fitted cell-killing curve with a large enough effect; inconclusive means small, poorly fitted or top-dose-only effect, or effect the other way; inactive means flat fitted curve, though single readings scatter. The list shows a part of the results.
Test: Cell viability qHTS assay in S16 Pmp22-F2sN cells; further: nearly all actives have a fitted effect of over 65% in size
Details: S16 Pmp22-F2sN Schwann cells (luciferase reporters placed in the Pmp22 gene) viability, CellTiter-Glo, 24 h; series mostly up to 57.5 µM; activity change, negative = cytotoxicity: at the top concentration
How it was run: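 Rat S16 Schwann reporter line, 24 h treatment with library compounds delivered at 23 nL per well. Cell viability by CellTiter-Glo luminescence.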
On the % scale 0 is the no-effect control and ±100 the full control effect; potency means the concentration at half of the fitted maximal effect.

SMILES	activity change, negative = cytotoxicity	Potency
CCOC(=O)N1CCN(Cc2nc3cc(NC(=O)c4ccc(OC)cc4)ccc3n2C(C)C)CC1	inactive: -18.8%	
CC(=O)Nc1ccc(S(=O)(=O)N2CCC(c3nnnn3-c3ccccc3)CC2)cc1	inactive: -4.17%	
CCOc1ccc(-n2nc(CO)c(C(=O)NCCCc3ccccc3)n2)cc1	inactive: -15.3%	
CCOc1ccc(NC(=O)CC2C(=O)N(c3ccc(C)cc3)C(=O)N2CCC2=CCCCC2)cc1 (configuration not stated)	inactive: 10%	
Nc1nonc1-c1nc2ccccc2n1Cc1cccc(Cl)c1	inactive: 7.59%	
Cc1ccc(CN(C(=O)c2ccccc2F)c2ccccn2)o1	inactive: 12.4%	
O=C(c1cccn2c(=O)c3cc(Cl)ccc3nc12)N1CCN(c2ccccc2F)CC1	inactive: 9.4%	
CCOC(=O)c1ccccc1NC(=O)CSc1nc(=O)[nH]c2c1CCC2	inactive: 4.36%	
Cc1ccccc1CN1C(=O)C2(c3ccccc31)N(c1ccccc1)C(=O)CS2(=O)=O (configuration not stated)	inactive: -4.28%	
COc1ccc(CCNC(=O)c2c(O)nc3ccccn3c2=O)cc1	inactive: 5.34%	
COc1ccc(Cl)cc1NC(=O)Cn1cc(C(=O)c2ccc(C)cc2)c(=O)c2ccc(C)nc21	inactive: 3.29%	
CCOc1ccc(C(=O)Nc2cccc(C(=O)OCc3cc(=O)n4nc(C5CC5)sc4n3)c2)cc1	inactive: 5.5%	
CSc1cccc(NC(=O)CN2CCN(Cc3ccccc3C)S2(=O)=O)c1	inactive: 1.32%	
CCCS(=O)(=O)N1CC(=O)N(c2cc(C)ccc2C)C(C)(C(=O)NC2CCCCCC2)C1 (configuration not stated)	inactive: 0.22%	
Cc1cccc(N2CCn3c2nc2c3c(=O)n(CCc3ccccc3)c(=O)n2C)c1	inactive: 5.31%	
COc1cccc(-c2cn3c(n2)sc2cc(C(=O)NCCc4ccc(OC)c(OC)c4)ccc23)c1	inactive: -1.28%	
CC(C)N1C(=O)C(O)(c2c[nH]c3ccccc23)c2ccccc21 (configuration not stated)	inactive: -24.7%	
N#CC1=C(N)N(c2cccc(Cl)c2)C2=C(C(=O)CCC2)C1c1cc(CN2CCOCC2)cs1 (configuration not stated)	inactive: 0.396%	
CCOc1ccc(-c2cc(C(=O)Nc3ccc(NC(C)=O)cc3)no2)cc1	inactive: 1.26%	
CCOc1ccc(OCC)c(NC(=O)CC(C)n2nc(C)cc2C)c1 (configuration not stated)	inactive: -0.878%	
Cc1cc(C)cc(Oc2coc3cc(OCC(=O)NC4CCCCC4)ccc3c2=O)c1	inactive: -24.4%	
Cc1cc(N)c(-n2cc3c(c2-c2ccc(Br)cc2)c(=O)n(C)c(=O)n3C)cc1C	inactive: -14.3%	
Clc1cccc(CNc2cc(-c3ccccc3)nc3nncn23)c1	inactive: -11%	
Cc1cc(C)c(NC(=O)CCn2c(=O)c3cccn3c3cccnc32)c(C)c1	inactive: 11.1%	

SMILES	activity change, negative = cytotoxicity	Potency
OCCN1CCN(C(c2ccccc2Cl)c2sc3nc(-c4ccco4)nn3c2O)CC1 (configuration not stated)	inactive: 0.142%	
CCOc1ccc(N(CC)C(=O)C2CCN(S(=O)(=O)c3cccc4nonc34)CC2)cc1	inactive: 17%	
COc1cc(NC(=O)Cn2nnc(-c3ccc(C(F)(F)F)cc3)n2)c(C(=O)O)cc1OC	inactive: 0.258%	
CCC(=O)n1nc(-c2cccnc2)nc1NCc1ccc(F)cc1	inactive: 0.0668%	
O=C(Cn1c(=O)oc2cc(S(=O)(=O)NCc3ccccc3)ccc21)Nc1ccc(F)c(Cl)c1	inactive: -1.98%	
COc1ccc(CCC(=O)NC2CC(=O)N(c3cccc(F)c3)C2)cc1 (configuration not stated)	inactive: 0.993%	
Cc1ccc(NC(=O)c2c(C)oc3ncnc(N4CCCCC4)c23)cc1Cl	inactive: 17.7%	
Cc1ccc(-n2nc(C)c3c(C)cc(=O)n(CC(=O)N4CCCc5ccccc54)c32)cc1	inactive: -6.2%	
CCn1cc(S(=O)(=O)c2cccc(Cl)c2)c(=O)c2cc(F)c(N3CCC(C)CC3)cc21	inactive: 3.97%	
COc1ccc(C)cc1NC(=O)CCc1c(C)nn(-c2ccc(N3CCOCC3)nn2)c1C	inactive: -15.8%	
O=C(Cc1ccc(Cl)cc1)Nc1nnc2n1CCS2	inactive: -5.08%	
CCc1ccc(NC(=O)Cn2ccn(Cc3ccccc3OC)c(=O)c2=O)cc1	inactive: 7.36%	
COc1cccc(CNC(=O)Cc2csc3ccccc23)c1OC	inactive: 3.38%	
Cc1cc(C)c(NS(=O)(=O)c2ccc(-c3cnc(C4CC4)o3)cc2)c(C)c1		active: 794 nM
COc1ccc(NC(=O)C(=O)NCC2(c3ccc(OC)c(OC)c3)CCCC2)cc1	inactive: -0.905%	
O=C(COCc1cc(-c2cccs2)on1)NCc1ccc(Cl)cc1	inactive: 7.57%	
COc1ccc(Cl)cc1NC(=O)CCS(=O)(=O)c1cccc2nonc12	inactive: 20.7%	
COCCNC(=O)CCC(=O)N1Cc2cccc(OC)c2Oc2ncccc21	inactive: 2.54%	
CCSc1nnc2c(n1)OC(c1ccc(C)cc1)N(C(C)=O)c1ccccc1-2 (configuration not stated)	inactive: -25.1%	
COc1ccc(CNC(=O)CCCN2C(=O)CSc3c2c(C)nn3-c2ccccc2)c(OC)c1	inactive: 26.2%	
O=c1n(Cc2cccc(F)c2)c2ccccc2c2nc(-c3ccccc3)nn12	inactive: 7.78%	
CN(C)C=NC(=O)c1cc2c(n(-c3ccccc3)c1=O)CC(C)(C)CC2=O	inactive: 17.3%	
Cc1c(CC(=O)N2CCCCC2)c(=O)oc2c(C)c3occ(C(C)(C)C)c3cc12	inactive: 0.964%	

Source: PubChem BioAssay AID1508642 (National Center for Advancing Translational Sciences (NCATS), 2021)
